# The list shows a part of the results.
# Tested on: HepG2
# Assay: cytotoxicity call (relative viability < 0.9)
# Settings: 10 µM
row,Structure (SMILES),cytotoxicity call
1,C[C@@H]1CN([C@H](C)CO)C(=O)c2cccc(NS(C)(=O)=O)c2O[C@@H]1CN(C)Cc1ccc(C(F)(F)F)cc1,inactive
2,COC(=O)[C@@H]1CC(=O)N(C(C)C)C1,inactive
3,CN(C)C(=O)c1cccc(-c2cccc(-c3nc(C(=O)NC4CCCCC4)cc4c3[C@@H](CCO)N([S@](=O)C(C)(C)C)C4)c2)c1,inactive
4,C[C@H](CO)N1C[C@H](C)[C@H](CN(C)C(=O)Nc2ccc(F)cc2)Oc2ccc(NS(C)(=O)=O)cc2CC1=O,inactive
5,COc1ccc(S(=O)(=O)Nc2ccc3c(c2)CC(=O)N([C@@H](C)CO)C[C@H](C)[C@H](CN(C)S(=O)(=O)c2ccc(F)cc2)O3)cc1,inactive
6,C[C@@H]1CN([C@@H](C)CO)C(=O)CCCn2cc(nn2)CO[C@H]1CN(C)C(=O)c1cc(-c2ccccc2)on1,inactive
7,C[C@@H]1CN([C@H](C)CO)S(=O)(=O)c2ccc(C#CC3CC3)cc2O[C@@H]1CN(C)C(=O)Cc1ccncc1,inactive
8,COCCN1C[C@H]2CN(Cc3cnn(C)c3)C[C@H]2C1=O,inactive
9,COc1ccc(CN(C)C[C@@H]2OCCCC[C@H](C)Oc3ccc(NC(=O)Nc4ccc5c(c4)OCO5)cc3C(=O)N([C@@H](C)CO)C[C@@H]2C)cc1,inactive
10,C[C@@H]1CCCCO[C@@H](CN(C)C(=O)Nc2ccccc2)[C@H](C)CN([C@H](C)CO)C(=O)c2cc(NC(=O)Nc3ccc(C(F)(F)F)cc3)ccc2O1,inactive
11,CCOP(=O)(CC(=O)O[C@H]1[C@H](OC(=O)Nc2ccccc2-c2ccccc2)[C@H](OC(=O)Nc2ccccc2-c2ccccc2)[C@@H](OC)O[C@@H]1COC(=O)NCCCCCC(=O)NO)OCC,active
12,C[C@H](CO)N1C[C@H](C)[C@@H](CN(C)C(=O)C2CCCCC2)OCCCC[C@H](C)Oc2ccc(NC(=O)C3CCCCC3)cc2C1=O,inactive
13,C[C@@H]1CN([C@@H](C)CO)C(=O)c2c(c3ccccc3n2C)-c2ccccc2CO[C@H]1CN(C)C(=O)NC1CCCCC1,inactive
14,O=C(NCc1ccc(Oc2ccccc2)cc1)c1nc(-c2cc(Br)c(O)c(Br)c2)no1,inactive
15,Cc1ncc([N+](=O)[O-])n1C,inactive
16,Cc1noc(C)c1NC(=O)Nc1ccc2c(c1)CC(=O)N([C@H](C)CO)C[C@@H](C)[C@@H](CN(C)S(C)(=O)=O)O2,inactive
17,C[C@@H]1CCCCO[C@@H](CN(C)S(=O)(=O)c2cccs2)[C@H](C)CN([C@H](C)CO)C(=O)c2cc(NC(=O)NC3CCCCC3)ccc2O1,active
